This note sets out measurements from the supplement of paper PMC7125110.

± gives the standard error. Variants at the background level are over-represented here.

Sequences and labels used below:
B1: glmS ribozyme (parent)
chain: AUAAAAGCGCCAGAACUACAGAAAUGUAGUUGACGAGGAGGAGGUUUAUCGAAUUUUCGGCGGAUGCCUCCAAA

Variants of B1 are the subject of one series. The series is described as follows: self-cleavage kobs at 2500 uM GlcN6P; higher = faster cleavage; RNA array. As to conditions: with glucosamine-6-phosphate. Summed up: (§1)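 Barcoded ribozyme variants were transcribed in situ on sequenced MiSeq chips by E. coli RNA polymerase. At 37 °C, a hybridised Cy3 probe tracked them while glucosamine-6-phosphate (40 μM to 10 mM) in HEPES/KCl/Mg(OAc)2 buffer flowed in and tiles were imaged over ~14 h. Per-tile medians of signals normalised to baseline and to non-cleaving reference variants were fit to one- or two-exponential decays, giving kobs. kcat and KM came from weighted Michaelis–Menten fits across concentrations.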
For the variant AUAAAAGCGCCAGAACUACAGAAAUGUAGUUGACGAGGAGGAGGUAUAUCGAAUUUUCGGCGGAUGGUUCCAAA [U46A C67G C68U], the “self-cleavage kobs at 2500 uM GlcN6P” value turned out to be 0.000113 ± 5.1e-05 s⁻¹.

Turning to AUAAAAGCGCCAGAACUACAGAAAUGUAGUUGACGAGGAGGAGGUUUCUCGAAUUUUCGUCGGAUCCCUCCAAA [A48C G60U G66C], the “self-cleavage kobs at 2500 uM GlcN6P” value was < 1e-05 s⁻¹. The same measure, in the same setting: the same measure for AUAAAAGCGCCAGAACUACAGAAAUGUAGUUGACGAGGAGGAGGUUUUUCGAAUACUCGGCGGAUGCCUCCAAA [A48U U55A U56C]: 3.8e-05 ± 1.3e-05 s⁻¹; for AUAAAAGCGCCAGAACUACAGAAAUGUAGUUGACGAGGAGGACGUUUGUCGAAUUUUCGGCGGAUGGCUCCAAA [G43C A48G C67G]: < 1e-05 s⁻¹. In the case of AUAAAAGCGCCAGAACUACAGAAAUGUAGUUGACGAGGAGGAGGUUUAACGAAUUUUCGGCGGAGGCCUUCAAA [U49A U65G C70U], the “self-cleavage kobs at 2500 uM GlcN6P” value is < 1e-05 s⁻¹. Still for that read-out and setting: the same measure for AUAAAAGCGCCAGAACUACAGAAAUGUAGUUGACGAGGAGGAGGUUUUUCCAAUUUUAGGCGGAUGCCUCCAAA [A48U G51C C58A]: < 1e-05 s⁻¹; for AUAAAAGCGCCAGAACUACAGAAAUGUAGUUGACGAGGAGGAGGUUUAUCGAAAUUUCGCCGAAUGCCUCCAAA [U54A G60C G63A]: < 1e-05 s⁻¹. The same measure, in the same setting: under AUAAAAGCGCCAGAACUACAGAAAUGUAGUUGACGAGGAGGAGGUUGAUCGGAUUUUCCGCGGAUGCCUCCAAA [U47G A52G G59C] stands < 1e-05 s⁻¹; under AUAAAAGCGCCAGAACUACAGAAAUGUAGUUGACGAGGAGGAUAUUUAUUGAAUUUUCGGGGGAUGCCUCCAAA [G43U G44A C50U C61G], < 1e-05 s⁻¹. On the same count and under the same terms, the same measure for AUAAAAGCGCCAGAACUACAGAAAUGUAGUUGACGAGGAGGAGUUUUAUCGAAUUUUCGGCGGAUGCAUACAAA [G44U C68A C70A]: < 1e-05 s⁻¹. With AUAAAAGCGCCAGAACUACAGAAAUGUAGUUGACGAGGAGGAGGUUUAUCGAAUUGUCGCCGGAUGCUUCCAAA [U56G G60C C68U], the “self-cleavage kobs at 2500 uM GlcN6P” value was < 1e-05 s⁻¹. As to AUAAAAGCGCCAGAACUACAGAAAUGUAGUUGACGAGGAGGAGGUUUAUCCAAUCCUCGGCGGAUGCCUCCAAA [G51C U55C U56C], the “self-cleavage kobs at 2500 uM GlcN6P” value is < 1e-05 s⁻¹. On the same count and under the same terms, under AUAAAAGCGCCAGAACUACAGAAAUGUAGUUGACGAGGAGGAUGUUUAUCGAAUUUUCGGAGGAUGCCUUCAAA [G43U C61A C70U] stands < 1e-05 s⁻¹. Still for that read-out and setting: under AUAAAAGCGCCAGAACUACAGAAAUGUAGUUGACGAGGAGGAUGUUUAUCGAAAUUUUCGGCGGAUCCUCCAAA [G43U U54A C58U G59C C61G G62C A64G U65A G66U] stands < 1e-05 s⁻¹. Same read-out and setting: under AUAAAAGCGCCAGAACUACAGAAAUGUAGUUGACGAGGAGGAGGUGUAUCGAAUUUUCUGCGGUUGCCUCCAAA [U46G G59U A64U] stands < 1e-05 s⁻¹.

Variants of B1 are the subject of another series. The series is described as follows: self-cleavage kobs at 10000 uM GlcN6P; higher = faster cleavage; RNA array. As to conditions: with glucosamine-6-phosphate. The essentials: as §1
As to AUAAACGCUUCAGAACUACAGAAAUGUAGUUGACGAGUAGGAGGUUUAUCGAAUUUUCGGCGGAUGGCUCCAAA [A6C G9U C10U G38U C67G], the “self-cleavage kobs at 10000 uM GlcN6P” value is < 1e-05 s⁻¹. With AUAAAAGCACCAGGAGUACAGAAAUGUAGUUGACGAGGAGGAGGUUUAUCGAAUUUUCGGCGGAUGCCUACAAA [G9A A14G C16G C70A], the “self-cleavage kobs at 10000 uM GlcN6P” value is < 1e-05 s⁻¹. Same read-out and setting: the same measure for AUAAAAACGCGAGAACUACAGAAAUGUAGUUGACGAGGAGGAGGUUUAUCGAAUUUUCGGAGGAUGCCUCCAAA [G7A C11G C61A]: < 1e-05 s⁻¹.

On to AUAAAAUCGCCAGAACUACAGAAAUGUAGUUGACUAGGAGGAGGUUUAUCGAAUUUUUGGCGGAUGCCUCCAAA [G7U G35U C58U], for which the “self-cleavage kobs at 10000 uM GlcN6P” value is < 1e-05 s⁻¹.

As to AUAAAACCGCCAGAACUACAGAAAUGUAGUUGACGAGGAGGAGGUUUGUCGAAUUUUCGGCGGAUGCCUCCAAA [G7C A48G], the “self-cleavage kobs at 10000 uM GlcN6P” value is < 1e-05 s⁻¹. In the case of AUAAAAGCGGCAGGACUACAGAAAUGUAGUUGGCGAGGAGGAGGUUUAUCGAAUUUUCGGCGGAUGCCUCCAAA [C10G A14G A33G], the “self-cleavage kobs at 10000 uM GlcN6P” value is < 1e-05 s⁻¹. Same read-out and setting: under AUAAAUGCGGCAGAACUACAGAAAUGUAGUUGACGAGGAGGAGGUUUAUCGAAUUUUCGGCUGAUGGCUCGAAA [A6U C10G G62U C67G C71G] stands 2.87e-05 ± 1.4e-05 s⁻¹. Same read-out and setting: under AUAAAAGCGGGAGAACUACAGAAAUGUAGAUGACGAGGAGGAGGUUUUUUGAAUUUACGGCGGAUGCCUCCAAA [C10G C11G U30A A48U C50U U57A] stands < 1e-05 s⁻¹. On the same count and under the same terms, under AUAAAAGCGCCAGAACUACAGAAAUGUAGUUGACGAGGAGGAGGUUUUUCGAAUACUCGGCGGAUGCCUCCAAA [A48U U55A U56C] stands 4.04e-05 ± 1e-05 s⁻¹. With AUAAAAGCGCCAGAACUACAGAAAUGUAGUUGACGAGGAGGACGUUUGUCGAAUUUUCGGCGGAUGGCUCCAAA [G43C A48G C67G], the “self-cleavage kobs at 10000 uM GlcN6P” value is < 1e-05 s⁻¹.

Consider AUAAAAGUGCCAGAACUACAGAAAUGUAGCUGACGAGGCGGAGGUCUAUCGAAUUUUCGGCGGAUGCCUCCAAA [C8U U30C A39C U46C], for which the “self-cleavage kobs at 10000 uM GlcN6P” value was < 1e-05 s⁻¹. On the same count and under the same terms, under AUAAAAGUGCCAGAACUACAGAAAUGUAGUUGACGAGGAGGGGGUUUAUCGGAUUUUCGGCGGAUGCCUCCAAA [C8U A42G A52G] stands < 1e-05 s⁻¹; under AUAAUAGCGCCAGAACUACAGAAAUGUAGUUGACGAGGCGGAGGUUUAUCGAAUUUUCGGCGGAGGCUUCCAAA [A5U A39C U65G C68U], 4.87e-05 ± 1.6e-05 s⁻¹; under AUAAAAGGGCCAGAACUACAGAAAUGUAGUUGGCGAGGAGUAGGUUUAUCGAAUUUUUGGCGGCUGCUUCCAAA [C8G A33G G41U C58U A64C C68U], < 1e-05 s⁻¹.

For AUAAAAGCGUCAGAACUACAGAAAUGUAAUUGACGAGGAGGAGGUUUAUCGAAUUUUCGGCGGAUGUCUUCAAA [C10U G29A C67U C70U], the “self-cleavage kobs at 10000 uM GlcN6P” value was < 1e-05 s⁻¹. Same read-out and setting: the same measure for AUAAAAGGGCCAGACCUACAGAAAUGUAGUUGACGAGGAAUAGGUUUAUUGAAUUUUCGGCGGAUGCCUGCAAA [C8G A15C G40A G41U C50U C70G]: < 1e-05 s⁻¹. On the same count and under the same terms, the same measure for AUAAAAACGCCAGAAAUACAGAAAUGUAGUUGACGAGGAGGAGGUUUAUCGAAUUCUCGGCGGAUGCCUUCAAA [G7A C16A U56C C70U]: < 1e-05 s⁻¹; for AUAAAAUCGCCAGAACUACAGAAAUGUAGUUGACCAGGAGUAGGUUUAUCGAAUUUUCGGCGGAUGCCUCCAAA [G7U G35C G41U]: < 1e-05 s⁻¹; for AUAAAAGCGCCAGAACUACAGAAAUGUAGUUGACGAGGAGGAGGUGUAUCGAAUUUUCUGCGGUUGCCUCCAAA [U46G G59U A64U]: < 1e-05 s⁻¹. On the same count and under the same terms, under AUAAAAUCGCCAGAACUACAGAAAUGUAGUUGACGAGGAGGAGGUUGAUCGAAUUUUCGGCAGAUGCCUCCAAA [G7U U47G G62A] stands < 1e-05 s⁻¹; under AUAAAAACGCCAGAACUACAGAAAUGUAGUUGACGAGGGGGAGGUUUAUCGAAUUUUCGGCGGAUGCUUACAAA [G7A A39G C68U C70A], < 1e-05 s⁻¹.
